# Data: article PMC4336329 (PLoS ONE, 2015)
# Among all 310,000 compounds or so, about 14,000 (4.5%) showed an effect of 50% or more. The effect is printed as a negative number. The list shows a part of the results.
# Biological target: human ether-à-go-go-related gene (hERG) potassium channel (human, UniProt Q12809)
# Assay: primary screen, population patch clamp on CHO cells stably expressing hERG
# 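Note: peak tail current of the secondary pulse compared with the same well before compound.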
# Chain of human ether-à-go-go-related gene (hERG) potassium channel (Q12809 whole entry, looked up): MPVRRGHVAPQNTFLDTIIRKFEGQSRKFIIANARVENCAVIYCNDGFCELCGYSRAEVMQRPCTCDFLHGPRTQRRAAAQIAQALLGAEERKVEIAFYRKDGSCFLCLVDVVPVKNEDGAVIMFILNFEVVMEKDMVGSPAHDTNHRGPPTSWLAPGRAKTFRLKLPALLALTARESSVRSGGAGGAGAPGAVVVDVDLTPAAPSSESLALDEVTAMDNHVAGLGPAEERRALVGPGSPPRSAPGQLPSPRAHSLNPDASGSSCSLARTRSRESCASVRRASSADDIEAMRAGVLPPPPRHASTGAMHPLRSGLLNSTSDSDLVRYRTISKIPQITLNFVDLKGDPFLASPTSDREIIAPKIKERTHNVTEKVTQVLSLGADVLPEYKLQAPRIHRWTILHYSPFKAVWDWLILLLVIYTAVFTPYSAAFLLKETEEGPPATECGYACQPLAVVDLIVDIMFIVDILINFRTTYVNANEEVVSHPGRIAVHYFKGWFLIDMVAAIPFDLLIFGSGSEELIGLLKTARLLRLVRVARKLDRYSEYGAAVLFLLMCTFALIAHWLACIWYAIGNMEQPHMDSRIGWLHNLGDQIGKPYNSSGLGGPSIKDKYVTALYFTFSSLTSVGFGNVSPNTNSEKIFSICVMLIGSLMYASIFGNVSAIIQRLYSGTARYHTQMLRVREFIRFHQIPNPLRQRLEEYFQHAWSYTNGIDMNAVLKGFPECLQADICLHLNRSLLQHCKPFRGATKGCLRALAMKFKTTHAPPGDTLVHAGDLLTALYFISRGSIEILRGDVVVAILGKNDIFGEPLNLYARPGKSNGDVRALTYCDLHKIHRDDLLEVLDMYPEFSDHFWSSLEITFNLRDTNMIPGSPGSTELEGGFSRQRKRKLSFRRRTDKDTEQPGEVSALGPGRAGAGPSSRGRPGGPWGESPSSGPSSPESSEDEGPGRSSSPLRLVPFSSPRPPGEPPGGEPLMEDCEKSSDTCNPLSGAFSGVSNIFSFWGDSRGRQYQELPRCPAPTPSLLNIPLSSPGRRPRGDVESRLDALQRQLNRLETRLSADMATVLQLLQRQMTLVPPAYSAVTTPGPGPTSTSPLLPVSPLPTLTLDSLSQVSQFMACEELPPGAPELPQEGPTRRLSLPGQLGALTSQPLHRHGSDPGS
row,SMILES,"hERG current change (%, negative = inhibition) at 10uM [%]"
1,CCN(C(=O)CSC1=Nc2ccccc2C2CC=NN12)C1CCS(=O)(=O)C1 (stereo not shown),25.4
2,Cc1cc(OC(=O)c2ccco2)c2c3c(c(=O)oc2c1)CCC3,5.13
3,CN=c1scc(-c2ccc(OC)cc2)n1/N=C(\C)c1cccnc1,-4.25
4,O=c1c(Cl)c(Nc2cccc(Cl)c2)cnn1-c1nc2ccccc2s1,-2.51
5,Nc1ccc(N2CCCCC2)c(Cl)c1,19.3
6,COc1ccc(CN2CCN(C(=O)c3c(-c4ccccc4)noc3C)CC2)cc1F,-32.1
7,Fc1ccc(-n2cc(-c3ccccc3)c3c(NN4CCOCC4)ncnc32)cc1,-42.1
8,CN(C)CCN=Cc1c(O)n(Cc2ccc3c(c2)OCO3)c(=S)[nH]c1=O,3.36
9,Cc1nc2ccccc2c(=O)n1/N=C/c1c(O)ccc2ccccc12,-5.63
10,Cc1ccc(Nc2nc(N)c([N+](=O)[O-])c(NCc3ccco3)n2)cc1C,-2.03
11,Cc1ccc2nc(SCc3ccc([N+](=O)[O-])cc3)nc(C)c2c1,0.901
12,COC(=O)c1cc(S(=O)(=O)NCC2CCN(Cc3ccc(Cl)cc3)CC2)cn1C,-17
13,Cc1cc(NC(=O)NC(=O)c2ccccc2F)no1,13.7
14,CC(O)CNc1nc2c(c(=O)n(C)c(=O)n2C)n1Cc1cccc(Br)c1 (stereo not shown),4.29
15,CC(CCc1ccccc1)NCC(O)COc1ccccc1 (stereo not shown),-73.4
16,Cc1ccc(/C=N/NC(=O)C2=NNC(c3ccccc3)(c3ccccc3)C2)c(O)c1,-7.94
17,CCc1ccc(CNCc2cccnc2)cc1,-2.35
18,CC(=O)Nc1ccc(NC(=O)CSc2nnc(NC(=O)C3CC(=O)N(c4ccc(F)cc4)C3)s2)cc1 (stereo not shown),9.69
19,C/C(=N\NC(=O)Cc1csc(N2CCOCC2)n1)c1ccccc1,-11.8
20,CCOC(=O)c1sc(=S)n(-c2ccc(OC)cc2)c1C,-51.1

row,SMILES,"hERG current change (%, negative = inhibition) at 10uM [%]"
1,CC(=O)NC(CCS(C)(=O)=O)C(=O)Nc1cc(C)on1 (stereo not shown),6.57
2,O=C(CSc1nc2ccccc2o1)NCc1n[nH]c(=O)c2ccccc12,-7.18
3,CCOC(=O)c1cc2n(c1C)-c1ccccc1C2=O,1.53
4,CC1(C)NC(=O)N(CC(O)CN(c2ccccc2)S(=O)(=O)c2ccc([N+](=O)[O-])cc2)C1=O (stereo not shown),-13.7
5,CC1(C)Cc2c(sc3c2C2=NCCN2C=N3)CO1.Cl,5.66
6,Cc1ccc(C(C(=O)NC(C)(C)C)N(CCCN2CCOCC2)C(=O)c2ccc(-c3ccccc3)[nH]2)o1 (stereo not shown),-76.5
7,Cn1ccnc1C(O)(c1nnc(-c2ccccc2)o1)C(F)(F)F (stereo not shown),11.3
8,COC(=O)c1ccc(OC(=O)C2CSC3(C)CCC(=O)N23)cc1 (stereo not shown),-1.4
9,CN(C(=O)CS(=O)(=O)c1cn(CC(=O)N2CCOCC2)c2ccccc12)c1ccccc1,0.304
10,COc1cccc(CC(=O)NCC2COc3ccccc3O2)c1OC (stereo not shown),-3.65
11,Cc1cc(C)c2c3c(sc2n1)C(=O)N(c1ccccc1)CC(=O)N3,24
12,C=CCn1cc(/C=N/Nc2nc3ccccc3[nH]2)c2ccccc21,2.61
13,CCCCc1ccc(NC=C2C(=O)OC3(CCCCC3)OC2=O)cc1,4.92
14,Nc1c(C(=O)NCc2ccco2)c2nc3ccccc3nc2n1Cc1ccc(F)cc1,7.04
15,CCOc1cc(C2NCc3ccccc3-n3cccc32)ccc1O.Cl (stereo not shown),-11.8
16,O=C(CSc1nnc(NC(=O)c2c(F)cccc2F)s1)Nc1ccccc1F,6.53
17,Cn1c(CNC(=O)c2ccccc2F)cc2ccccc21,13.2
18,CN1CCCN(C(=O)CC2(CC(=O)O)CCCCC2)CC1.Cl,28
19,O=C(CSc1nccc(=O)[nH]1)N1CCOCC1,3.03
20,C=CCNC(=O)CCCOc1cc(C)ccc1C,-9.84

row,SMILES,"hERG current change (%, negative = inhibition) at 10uM [%]"
1,Cc1ccc(C#N)c(SCc2cccc(Br)c2)n1,12.6
2,Cc1ccc(C(c2nnnn2CC2CCCO2)N2CCN(C)CC2)cc1.Cl (stereo not shown),-7.48
3,O=C(OCc1nnc(-c2ccc(Br)cc2)o1)c1cncc(Br)c1,-2.38
4,c1nc(N2CCOCC2)c2[nH]cnc2n1,9.77
5,CC1CCN(CCCNS(=O)(=O)c2ccc3c(c2)CCN3C(=O)C2CC2)CC1,-0.0814
6,CCc1cc(C(=O)c2ccc(OC)cc2)c(NC(=O)CC(C)(C)CC(=O)O)s1,8.98
7,CCOC(=O)c1cc2c(s1)-c1c(C)cccc1OC2,7.36
8,Cc1ccc(N2CC(C(=O)NCCS(=O)(=O)N3CCN(c4ccccc4)CC3)CC2=O)cc1C (stereo not shown),-1.56
9,CNC(=S)N1N=C(c2ccc(Br)cc2)CC1c1ccc(Br)cc1 (stereo not shown),4.92
10,COc1cc(OC)c(C(=O)NCc2cccnc2)cc1OC,2.26
11,O=c1c2sccc2[nH]c(=S)n1-c1ccccc1,-12.5
12,CC1CCCN(c2cc(N(C)CCO)c([N+](=O)[O-])c3nonc23)C1 (stereo not shown),6.11
13,CSCCC(NC(=O)c1ccccc1Br)C(=O)NNC(=O)c1ccco1 (stereo not shown),13.6
14,CCCNS(=O)(=O)c1ccc(CCC(=O)NCC2CCCO2)cc1 (stereo not shown),11.5
15,COCCNC(=O)CN1CCC(NC(=O)Nc2ccccc2)CC1,-8.21
16,CC1(OC(=O)C2CCCC2)C(=O)C=C2C=C(c3ccc(C#N)cc3)OC=C2C1=O (stereo not shown),26.3
17,Cc1nc(Cc2nnc(SCC(=O)N(C)c3ccccc3)o2)cs1,15.9
18,Cc1ccc(C)c(Nc2ccc(C(=O)NCCc3ccccc3)cn2)c1,-20.9
